This passage reports z-score results from PubChem BioAssay AID488969 (Vanderbilt High Throughput Screening Facility, 2010).

The full ranking holds about 110,000 compounds; the median of “z-score” is about -0.1, and the highest 2% start at about 2. Some of the results follow. Active and inactive are the calls of the source.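 How the source made its calls: active means z-score in the third read window above 3 or below -3; inactive means the rest.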 Residues, ends and D or L forms follow the SMILES beside them. *: point of attachment. Boc = CC(C)(C)OC(=O)*; Bn = c1ccc(C*)cc1

This assay deals with Metabotropic glutamate receptor 8 (Rattus norvegicus) (UniProt P70579). The experiment in a line: mGluR8 Gi/Go-coupled signaling modulation – cell-based, rat, thallium flux, HTS, primary screen (AID 488969). The settings on record: HEK293 rat mGluR8, GIRK (G protein-gated inwardly rectifying potassium channel) thallium flux, FluoZin2; at 10 µM; stronger effect = higher value; submaximal glutamate (EC20) added with thallium.
Chain of UniProt P70579 (P70579 whole entry, looked up): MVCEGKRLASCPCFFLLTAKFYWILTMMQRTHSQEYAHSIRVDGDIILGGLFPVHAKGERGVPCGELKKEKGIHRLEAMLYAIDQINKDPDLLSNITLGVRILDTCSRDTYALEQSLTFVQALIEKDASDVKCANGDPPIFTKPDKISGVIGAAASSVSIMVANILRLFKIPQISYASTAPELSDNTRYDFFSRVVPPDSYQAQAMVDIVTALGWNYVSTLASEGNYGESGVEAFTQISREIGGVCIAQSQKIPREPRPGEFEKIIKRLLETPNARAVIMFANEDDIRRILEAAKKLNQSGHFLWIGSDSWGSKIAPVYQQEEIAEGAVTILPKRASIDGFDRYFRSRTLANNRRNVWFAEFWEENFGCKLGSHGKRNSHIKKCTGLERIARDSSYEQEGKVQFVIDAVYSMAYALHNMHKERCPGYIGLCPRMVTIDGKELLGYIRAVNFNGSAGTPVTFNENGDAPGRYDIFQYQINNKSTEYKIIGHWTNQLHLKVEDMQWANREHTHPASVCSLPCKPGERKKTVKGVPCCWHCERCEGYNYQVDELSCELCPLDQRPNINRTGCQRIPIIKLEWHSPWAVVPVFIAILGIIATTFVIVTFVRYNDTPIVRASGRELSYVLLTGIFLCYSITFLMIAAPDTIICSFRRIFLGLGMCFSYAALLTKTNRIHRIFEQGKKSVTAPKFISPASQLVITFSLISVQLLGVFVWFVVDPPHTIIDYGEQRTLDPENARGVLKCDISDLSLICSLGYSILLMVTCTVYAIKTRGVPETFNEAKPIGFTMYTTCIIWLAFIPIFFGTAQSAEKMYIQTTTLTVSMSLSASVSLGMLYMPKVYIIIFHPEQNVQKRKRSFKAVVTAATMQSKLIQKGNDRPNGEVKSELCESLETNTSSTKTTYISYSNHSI
Consider `Cc1nc2ccc(NC(=O)N3CCSCC3)cc2nc1C`, for which the z-score was found to be 0.208.

Take `CCOc1ccc2[nH]c(O)c(NC(C)=O)c2c1`: the z-score was -0.136. Next, `CC1CCN(C(=O)CSc2nnc(-c3ccncc3)n2C)CC1`: -0.27. Compound `COc1ccc(CN=C2NC(=O)CC(C(=O)Nc3ccc([N+](=O)[O-])cc3C)S2)cc1` (configuration not stated) came in with a z-score of -0.193. With `O=C(Cc1ccc(Cl)cc1)N/N=C/c1c(Cl)cccc1Cl`, the z-score was determined as 0.261. The figure for `CCCCCCCC(=O)NNC(=O)Cc1ccccc1` is -0.119; for `COc1ccc(-c2cn(-c3ccc(C)cc3)c(=O)n2CC(=O)Nc2ccc(OC)cc2OC)cc1` it is -0.429. The figure for `Cc1ccc(-c2nnc3sc(-c4ccc5c(c4)OCCO5)nn23)cc1` is 1.36; for `Cc1occc1C(=O)N1CCCc2ccccc21` it is -0.103; for `COc1cc2nc(NCCCN3CCN(C)CC3)n3nc(-c4ccccc4)nc3c2cc1OC` it is 0.207. The figure for `COc1ccccc1OCC(=O)OCC(=O)Nc1ncc(Cl)cc1Cl` is -0.563; for `Cc1nc(C)c(C(=O)C2=C(O)C(=O)N(CCN3CCOCC3)C2c2cccs2)s1` (configuration not stated) it is 0.147. For the compound `CCOc1ccc(/C=C/C(=O)c2ccccc2)cc1OC`, the z-score is -1.08. The figure for `CC(=O)Nc1ccc2nc(-c3ccc(Br)o3)[nH]c2c1` is -0.347; for `CCOC(=O)C(C)Oc1c(Br)cc(C2NC(=O)NC(C)=C2C(C)=O)cc1OCC` (configuration not stated) it is -0.276; for `COc1ccc(CCNC(=O)c2ccc(Cl)c(S(=O)(=O)N(C)c3ccccc3)c2)cc1` it is -0.629. `O=c1cc(CN2CCN(c3ccccc3O)CC2)nc2sccn12` gave a z-score of -0.31. Next, `COc1ccc(C(C(=O)NC2CCCCC2)N(Cc2ccco2)C(=O)CNC(=O)c2ccco2)cc1` (configuration not stated): 0.256; `CCOc1ncccc1C(=O)OCC(=O)N1CC(=O)Nc2ccccc21`: 2.36. `COc1ccc(-n2c(SCC(=O)Nc3ccc(C(=O)O)cc3)nnc2-c2cccs2)cc1` had a z-score of 0.0972. The figure for `Cc1c(-c2ccccc2)oc2c(C(=O)OCC(=O)Nc3ccc(C(N)=O)cc3)cccc2c1=O` is -1.33; for `COCCN(C(=O)CCC(=O)Nc1ccccn1)C(C(=O)NC1CCCC1)c1ccc(OC)cc1` (configuration not stated) it is -0.622. Next, `COc1cccc2c1OC[C@@H](CO)[C@H]2N(C)C(=O)Nc1ccccc1`: active: 6.33. Next, `CCCC(C)n1[nH]c(=O)c2c(C)cc(C)nc21` (configuration not stated): -0.255. Regarding `Cc1c(C(=O)Nc2ccc(Cl)cn2)oc2ccccc12`, the z-score is -0.194. Next, `Cc1nc2c(-c3ccccc3)c(C)nn2c(C)c1CCC(=O)O`: 0.235. `CCCCNC1C(CC)C(CCC)C(C#N)(C#N)C1(C#N)C#N` (configuration not stated) showed a z-score of -0.218. Take `COc1cc(NC(=O)C2CC(=O)NC3=C2C(=O)CC(C)(C)C3)c(OC)cc1Cl` (configuration not stated): the z-score was -0.189. Next, `COc1ccc(OC)c2sc(NC(=O)C(C)C)nc12`: -0.367. Next, `CC(C)(C)c1ccc(C(=O)N/N=C/c2cccc(Cl)c2)cc1`: 1.35; `COc1ccc(CCN2C(=O)NC(NC(C)=O)(C(F)(F)F)C2=O)cc1OC` (configuration not stated): -0.0599. On to `COc1ccc(OCCCc2c(C)n[nH]c2C)cc1`, for which the z-score is -0.118. Next, `O=S(=O)(N1CCOCC1)n1c(Cc2ccccc2)nc2ccccc21`: 0.438; `C=CCn1c(CSCc2ccccc2)nnc1SCC(=O)NCc1ccccc1`: -0.096; `Cc1ccc(-c2csc(NC(=O)CSc3nc(C)cs3)n2)cc1`: 0.156. The figure for `O=C(O)C1CCCCC1C(=O)Nc1ccc2c(c1)OCCO2` (configuration not stated) is 0.102; for `Cc1ccc(N2C(N)=C(C#N)C(c3cccs3)C3=C2CC(C)(C)CC3=O)cc1` (configuration not stated) it is -0.289.

Turning to `O=C(CSc1nc(-c2ccco2)cc(C(F)(F)F)n1)N1CCCc2ccccc21`, the z-score amounted to 0.302. The figure for `CCOc1ccccc1N1CCN(C(=O)/C=C/c2cccc([N+](=O)[O-])c2)CC1` is 0.17; for `CC(C)CC(c1nnnn1C(C)(C)C)N1CCN(C2CCCC2)CC1` (configuration not stated) it is 0.378; for `N#C/C(=C\c1ccc(N2CCOCC2)cc1)c1ccccc1` it is -0.497. The figure for `CN(CC(=O)Nc1ccc(F)cc1)c1ccc(S(=O)(=O)N2CCCCC2)cc1[N+](=O)[O-]` is -0.121. As for `CC1=NN(Cc2ccccc2)C(=O)/C1=C/c1ccc(N(C)C)cc1`, the z-score stood at 0.0819. The figure for `O=S(=O)(NCCc1cn2ccccc2n1)c1ccc(F)c(C(F)(F)F)c1` is 0.422; for `COc1ccc(OC)c(S(=O)(=O)Nc2ccc3oc4c(c3c2)C(=O)CCC4)c1` it is 0.244. The figure for `O=C(Oc1coc(CSc2nnc(NC(=O)C3CC3)s2)cc1=O)c1ccccc1` is -0.176; for `O=C(/C=C/c1ccc(Cl)cc1)Nn1c(-c2cccs2)nc2ccccc2c1=O` it is -0.113; for `Cc1cc(NC(=O)C2C3C(=O)N(CCC(C)C)C(C(=O)NCc4ccccc4)C34C=CC2(C)O4)no1` (configuration not stated) it is -0.142.

The compound `CC(C)CC(NC(=O)C(Cc1ccc(OCc2ccccc2)cc1)NC(=O)OC(C)(C)C)C(N)=O` (configuration not stated) (Boc-Tyr(Bn)-Leu-NH2; configuration not given here) returned a z-score of -0.105. The compound `CCOC(=O)Cc1csc(NC(=O)CSc2nnc(-c3ccc(C)cc3)o2)n1` registered a z-score of 0.697. Next, `O=c1oc2ccccc2cc1N1CCOCC1`: -0.0667; `CCCSc1nnc(-c2c[nH]c3ccccc23)n1CC`: 0.224. Next, `CCn1c(Cc2ccccc2)nnc1SCC(=O)Nc1ccc2c(c1)OCCO2`: -0.292; `O=[N+]([O-])c1ccc(N2CCN(c3nc(-c4ccc(Cl)cc4)cs3)CC2)cc1`: -0.33; `CCC(=O)c1ccc(OCC(O)CN2CCN(S(=O)(=O)N3CCCCC3)CC2)cc1` (configuration not stated): 0.921. The figure for `COc1ccc(C(=O)c2ccc(Cl)cc2)cc1` is -0.154; for `COc1ccc2c(c1)N1CCN=C1N2C` it is 1.97; for `O=S(=O)(NNc1ccc(Cl)nn1)c1ccc(F)cc1` it is 0.278. `O=C(C1CCN(C2CC(=O)N(c3cccc(Cl)c3)C2=O)CC1)N1CCCCCC1` (configuration not stated) gave a z-score of -1.25. The figure for `Cc1cnc(NC(=O)CSc2nnc(-c3ccccc3)n2Cc2ccccc2)s1` is -0.372; for `CCN(CC)C(=O)Cn1cnc2sc(C(=O)N3CCN(c4ccc(OC)cc4)CC3)c(C)c2c1=O` it is 0.302. The figure for `O=C(CN1CCOCC1)NC1CC2CCC1C2` (configuration not stated) is 0.0479; for `CCCCOc1ccc(Cc2n[nH]c(=S)n2N)cc1` it is 0.16; for `Cc1ccccc1OCC(=O)OC(C)CN1CCN(C)CC1` (configuration not stated) it is -0.0943. Take `CCOC(=O)C1CCN(C(C)=C2C(=O)c3ccccc3C2=O)CC1`: the z-score is 0.966. As to `O=C(CCCOc1ccccc1)Nc1ccc(Br)cc1`, the z-score was -0.277. On to `CCn1c(SCC(=O)Nc2ccc3c(c2)OCO3)nnc1-c1ccccc1O`, for which the z-score was -0.55. In turn, `O=C(NNC(=O)c1cccc2ccccc12)c1ccco1` gave a z-score of -0.179. The figure for `COc1ccc(CNC(=O)C(=O)NCC2CCCO2)cc1` (configuration not stated) is -0.283; for `CCc1nnc(NC(=O)Cc2ccc(OCc3c(C)noc3C)cc2)s1` it is -1.17; for `O=C(CN1CCNCC1)Nc1ccc(Oc2ccccc2)cc1` it is 2.35. Next, `O=S(=O)(Nc1ccc2c(c1)nc1n2CCN(Cc2ccccc2)C1)c1ccc(F)cc1`: -1.34. The figure for `Cn1c(=O)cc(OCCCC(=O)NCc2ccccn2)c2ccccc21` is 0.111; for `CCCCN(Cc1ccco1)C(=O)Cn1ncc2c(=O)oc3ccc(C)cc3c21` it is -0.352. Regarding `O=C(COC(=O)c1ccccc1Cl)Nc1nccs1`, the z-score was -0.0413. The figure for `Clc1cncc(Cl)c1NNc1c2ccccc2nc2ccccc12` is 0.0214.

`COC(=O)c1cn(CC(=O)NCc2cccs2)c2ccccc12`: the z-score is -0.307. `CCOc1ccc(C(=O)Nc2cccc(-c3nc4ccccc4[nH]3)c2C)cc1[N+](=O)[O-]` showed a z-score of -0.366. `CC(=O)c1c(C)c[nH]c1C` yielded a z-score of 1.16. Turning to `Cc1sc2nc(SCc3nc4ccccc4[nH]3)n(Cc3ccco3)c(=O)c2c1C`, the z-score was found to be 0.693.

`CCOC(=O)Cc1cc(-c2ccc(O)cc2)nc2ccc3ccccc3c12` showed a z-score of 0.0725. The figure for `N#C/C(=C\c1cccnc1)C(=O)NC1CCCCC1` is -0.27; for `COc1cc2c(cc1OC)CN(C(C)C(=O)Nc1ccc(NC(C)=O)cc1)CC2` (configuration not stated) it is 0.157; for `C=C(C)C(=O)NC1=NN(c2ccccc2)C(=O)C1` it is -0.302.

As for `O=C(N/N=C/c1cccc([N+](=O)[O-])c1)c1cc(-c2ccccc2)nc2ccccc12`, the z-score is -0.328. Turning to `COC(=O)[C@H]1CCCN1C(=O)Nc1cccc(Oc2c(F)c(F)c(F)c(F)c2F)c1`, the z-score came out at 0.336. Next, `c1ccc(C2=NC(c3ccccc3)N=C(c3ccccc3)N2)cc1`: -0.335; `O=C(Nc1cccnc1)c1ccc(COc2ccccc2Br)o1`: -0.158; `COc1ccc2[nH]c(C)c(CCN(Cc3cccs3)C(=S)Nc3ccccc3)c2c1`: 0.0461. The figure for `COc1ccc(NC(=O)c2cc(C)on2)cc1OC` is 1.98; for `CCCCOc1ccc(C(=O)N/C(=C\c2cccc([N+](=O)[O-])c2)C(=O)OCc2ccco2)cc1` it is -0.156.

For the compound `Cc1ccc(/C=C/C(=O)NCc2ccco2)o1`, the z-score is -0.412. The figure for `Cc1cc(C)n2c(SCC(=O)Nc3cc(C)on3)nnc2n1` is 0.885; for `CCOC(=O)C1=C(C)Nc2ccccc2N=C1NC(=O)c1cccc(S(=O)(=O)NCc2ccccc2)c1` it is 0.0479; for `COc1cc(C(c2nnnn2C(C)(C)C)N2CCN(c3nc4ccccc4s3)CC2)ccc1O` (configuration not stated) it is -0.579. The figure for `COc1ccc(C)cc1NC(=O)COC(=O)c1ccc(OCc2ccc(Cl)cc2Cl)c(OC)c1` is 0.00468; for `CCCC(=O)NCCc1cc2cc(C)c(C)cc2[nH]c1=O` it is 0.486; for `O=C1C(NS(=O)(=O)c2cccs2)=C(N2CCN(c3cccc(C(F)(F)F)c3)CC2)C(=O)c2ccccc21` it is -0.101. Next, `CCOC(=O)c1c(NC(=O)CSc2nnc(-c3ccncc3)n2Cc2ccco2)sc(C(C)=O)c1C`: active: -3.85. The compound `COc1ccc(C(F)(F)F)cc1N/C=C\c1nnnn1-c1ccc(C)cc1` gave a z-score of -0.108. The figure for `COc1cccc(CNC(=O)c2cccc(Br)c2)c1` is -0.188; for `Cc1nn(-c2ccccc2)c(C)c1/C=N/NC(=O)c1cc(C2CC2)[nH]n1` it is -0.52. The figure for `COc1ccc(OC(C)C(=O)NCc2cccnc2)cc1` (configuration not stated) is -0.197. The figure for `Cc1cc(N2CCN(c3ccccc3)CC2)nc(-n2nc(C)cc2C)n1` is 0.16; for `O=C(NC1CCCc2ccccc21)C1CCCN(S(=O)(=O)c2cnc[nH]2)C1` (configuration not stated) it is 0.957; for `O=C(O)C1C(C(=O)Nc2ccc(Cl)cc2)C2C=CC1C21CC1` (configuration not stated) it is 0.236. The compound `CC(=O)N1CCC(N(CCN2CCOCC2)C(=S)Nc2c(C)cccc2C)CC1` yielded a z-score of -0.117.
